The whole screen tested about 48,000 compounds, of which about 550 (1.1%) were called active. Roughly 4% stayed inconclusive and do not appear here. Rule as the data show it: active = potency below about 15 µM; inconclusive = mostly about 16 µM to 33 µM; inactive = weaker than that. The list shows a part of the results.
target: Lysosomal acid glucosylceramidase (Homo sapiens) (UniProt P04062); assay: Glucocerebrosidase; conditions: purified enzyme, resorufin glucoside fluorescence (screen aimed at inhibitors), 20 min;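 also: the screen sought inhibitors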
In short: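 Normal human glucocerebrosidase (0.2 nM final) was assayed with resorufin β-D-glucopyranoside (30 uM final) in 50mM citric acid/KH2PO4, 10mM sodium taurocholate, 0.01% tween-20, pH 5.9. Compounds were titrated; fluorescence (Ex 548, Em 600) read after 20 min at RT.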
Potency is read from the fitted curve at half-maximal effect.

Sequence of UniProt P04062 (P04062 whole entry, looked up): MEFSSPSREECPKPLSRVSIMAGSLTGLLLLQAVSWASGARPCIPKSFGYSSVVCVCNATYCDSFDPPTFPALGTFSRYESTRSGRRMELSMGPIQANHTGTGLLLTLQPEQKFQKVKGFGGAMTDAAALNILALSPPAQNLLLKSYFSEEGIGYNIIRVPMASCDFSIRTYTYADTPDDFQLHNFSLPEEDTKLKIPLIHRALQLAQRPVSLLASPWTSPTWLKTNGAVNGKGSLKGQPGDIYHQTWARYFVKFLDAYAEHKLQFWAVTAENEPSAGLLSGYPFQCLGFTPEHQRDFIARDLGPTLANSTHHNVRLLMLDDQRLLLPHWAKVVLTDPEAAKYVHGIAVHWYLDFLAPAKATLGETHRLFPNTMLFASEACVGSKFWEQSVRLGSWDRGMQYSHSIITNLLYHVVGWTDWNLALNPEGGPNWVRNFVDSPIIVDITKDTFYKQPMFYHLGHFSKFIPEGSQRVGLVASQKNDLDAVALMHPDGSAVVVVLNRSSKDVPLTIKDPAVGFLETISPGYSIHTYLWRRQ

Potency, inactive:
COCCn1nnnc1C(c1ccccn1)N1CCN(c2cc(C)ccc2C)CC1 (stereo unspecified) > 76.9 µM, O=C(NCc1ccccn1)c1c(Cl)cccc1Cl > 76.9 µM, O=C(Nc1nccs1)c1c(O)c2cccc3c2n(c1=O)CCC3 > 76.9 µM, Cc1cc(=O)[nH]c(S/C=C/c2ccccc2)n1 > 76.9 µM, COC(=O)CSC1=C(C#N)C(c2sccc2C)CC(=O)N1 (stereo unspecified) > 76.9 µM, Cc1ccc(S(=O)(=O)N2CCC(C(=O)OCC(=O)N3CCc4ccccc43)CC2)cc1 > 76.9 µM, CSCCC1NC(=O)N(CC(=O)Nc2ccc(N3CCCCC3)cc2)C1=O (stereo unspecified) > 76.9 µM, CCCCCc1c(C)nc(SCC(=O)O)[nH]c1=O > 76.9 µM, Cn1c(SCC(=O)NCC2CCCO2)nnc1-c1ccc(S(=O)(=O)N2CCCC2)cc1 (stereo unspecified) > 76.9 µM, CCn1c(Sc2nc(C)nc3scc(-c4cccs4)c23)n[nH]c1=O > 76.9 µM, CCCCCn1c(SCC(=O)OCC)nc2cc(C(=O)NCc3ccco3)ccc2c1=O > 76.9 µM, c1ccc(Cc2nn3c(COc4ccccc4)nnc3s2)cc1 > 76.9 µM, O=C(c1ccc(-c2nnc(-c3ccccc3)o2)cc1)N1CCCCCC1 > 76.9 µM, CCc1nnc(NC(=O)CCC(=O)N2CCN(C3CCCCC3)CC2)s1 > 76.9 µM, O=c1c(Cl)c(NCCO)ncn1-c1ccccc1 > 76.9 µM, CC12CCC(C(=O)NCCCn3ccnc3)(OC1=O)C2(C)C (stereo unspecified) > 76.9 µM, CN1CCN(C(=O)c2ccc3c(=O)n(Cc4ccc(Cl)cc4)c(=S)[nH]c3c2)CC1 > 76.9 µM, CCOC(=O)C1=C(C)NC(=O)NC1C1CC=CCC1 (stereo unspecified) > 76.9 µM, OC(COCc1ccc(Cl)cc1)CN1CCN(CC(O)COCc2ccc(Cl)cc2)CC1 (stereo unspecified) > 76.9 µM, O=C1CCc2nc3sc4c(c3c(=O)n2N1)CCCC4 > 76.9 µM, O=C1C(c2ccc(F)cc2)N(C2CCCCC2)C(=O)CN1C1CCCC1 (stereo unspecified) > 76.9 µM, Cc1cccc(N=C(N2CCOCC2)P(=O)(N2CCOCC2)N2CCOCC2)c1 > 76.9 µM, CC(C)NC(=O)c1cccc(Cn2cc(Cl)cn2)c1 > 76.9 µM, CN(C)c1ccc(C2C=C(c3ccc(Cl)cc3OC(F)F)Nc3ncnn32)cc1 (stereo unspecified) > 76.9 µM, Cc1ccccc1-n1c(SCC(=O)N2CCOCC2)nc(O)cc1=O > 76.9 µM, Nc1cc(C(=O)OCC(=O)NCc2ccco2)ccc1Cl > 76.9 µM, CCCn1c(NCc2cccc(OC)c2O)nc2ccccc21 > 76.9 µM, Cc1cc(C)nc(SCc2nnc(SCC(=O)Nc3ccc(C)c(C)c3)n2Cc2ccco2)n1 > 76.9 µM, CCOC(=O)c1ccccc1NC(=O)CSc1nnnn1C1CCCCC1 > 76.9 µM, CCOc1cc(C2C(C(=O)N3CCCCC3)=C(C)NC3=C2C(=O)CC(C)(C)C3)ccc1O (stereo unspecified) > 76.9 µM, CCOC(=O)N1CCN(c2cc(=O)n(-c3ccc(OCC)cc3)c(=O)[nH]2)CC1 > 76.9 µM, CC(C)C(=O)Nc1ccc(NC(=O)c2ccccc2Cl)nc1 > 76.9 µM, FC(F)(F)c1nc2nncn2c2c1CCCCC2 > 76.9 µM, O=c1[nH]c(SCc2ccc(Cl)cc2)nc2c1CCC2 > 76.9 µM, Nc1cc(=O)nc(SCc2ccccc2)n1Cc1ccco1 > 76.9 µM, Cc1ccc(NC(=O)c2oc3ccccc3c2NC(=O)c2ccc3c(c2)OCO3)cc1 > 76.9 µM, CCOc1cc(NC(=O)C2CC2)c(OCC)cc1NC(=O)c1cccnc1 > 76.9 µM, O=C(c1ccco1)N1CCN(C(=O)C2Cc3ccccc3CN2S(=O)(=O)c2ccc(F)cc2)CC1 (stereo unspecified) > 76.9 µM, CCC1CCCCN1S(=O)(=O)c1ccc(S(=O)(=O)N(Cc2cccs2)C2CC2)cc1 (stereo unspecified) > 76.9 µM, CC(C)(C)n1nnnc1C(c1cccc(C(F)(F)F)c1)N1CCOCC1 (stereo unspecified) > 76.9 µM, O=C(NCC1CCCO1)C1CCCN(c2ncccn2)C1 (stereo unspecified) > 76.9 µM, O=C(NC(Cc1ccc(F)cc1)C(=O)O)c1ccccc1 (stereo unspecified) > 76.9 µM, O=C(c1nc2ncccn2n1)N1CCN(c2ccc(F)cc2)CC1 > 76.9 µM, COCCSc1nnc(-c2cnccn2)o1 > 76.9 µM, N#Cc1c(N)nc2c(c1-c1ccco1)CCCCC2 > 76.9 µM, COc1cccc(N2CCN(C3CC(=O)N(c4ccc(F)c(Cl)c4)C3=O)CC2)c1 (stereo unspecified) > 76.9 µM, CCN(CC)C(c1ccc(C)cc1)c1nnnn1C1CCCCC1 (stereo unspecified) > 76.9 µM, Cc1cc(C(=O)Nc2cccnc2)no1 > 76.9 µM, CCOC(=O)c1cc(-c2cccs2)nn1CCC#N > 76.9 µM, O=C(Cn1nc(-c2ccccc2)ccc1=O)NCCN1CCN(Cc2ccccc2)CC1 > 76.9 µM, CCCC(c1nnnn1CCOC)N1CCN(c2cccc(OC)c2)CC1 (stereo unspecified) > 76.9 µM, c1ccc(-c2nnc(CSc3nnc(-c4cccs4)o3)o2)cc1 > 76.9 µM, O=C(CSc1nnc(-c2ccncc2)n1C1CCCCC1)Nc1ccccc1 > 76.9 µM, COC(=O)C1CCN(C(=O)COC(=O)Cn2cnnn2)CC1 > 76.9 µM, Cc1ccc(F)cc1NC(=O)c1cccc2nccnc12 > 76.9 µM, Cc1nn(C)c(C)c1S(=O)(=O)N1CCc2ccccc21 > 76.9 µM, CCOC(=O)N1CCN(C(=O)c2cn(-c3ccc(C)c(C)c3)c(=O)c3ccccc23)CC1 > 76.9 µM, COc1ccc(Nc2nc(N)nc(SCc3nnc(C)s3)n2)cc1 > 76.9 µM, COc1ccc(CCNc2oc(-c3ccccc3OC)nc2C#N)cc1OC > 76.9 µM, O=C(c1ccc(COc2ccc3c(c2)CCC3)o1)N1CCN(c2ccccc2)CC1 > 76.9 µM, CCCn1c2c(c(O)c(C(=O)Nc3nccs3)c1=O)CCCC2 > 76.9 µM, Cc1ccc(NCc2nnc(SCC(=O)Nc3cccc(O)c3)n2CC2CCCO2)c(C)c1 (stereo unspecified) > 76.9 µM, CCc1ccc2[nH]c(=O)c(C(c3nnnn3CC3CCCO3)N3CCN4CCCC4C3)cc2c1 (stereo unspecified) > 76.9 µM, CC(C)(C)OC(=O)NCCc1nnc(SCC(N)=O)o1 > 76.9 µM, Cc1noc(NS(=O)(=O)c2ccc(N/C=C/C(=O)c3ccc4c(c3)OCO4)cc2)c1C > 76.9 µM, C=CCn1c(SCc2ccccc2C#N)nnc1-c1ccccc1O > 76.9 µM, O=C1c2ccccc2C(=O)N1CCCCSc1nnc2ccccn12 > 76.9 µM, CCOC(=O)C1CCCN(S(=O)(=O)c2ccc(C)cc2)C1 (stereo unspecified) > 76.9 µM, NC(=O)c1nsc(C(=O)N(CC(=O)NCc2ccc3c(c2)OCO3)C2CCCCC2)c1N > 76.9 µM, COc1ccc(C2C(C(=O)N3CCOCC3)CCC(=O)N2c2ccc(OC)cc2)cc1 (stereo unspecified) > 76.9 µM, COc1ccc(COC(=O)c2n[nH]c3ccccc23)cc1F > 76.9 µM, CN(C)S(=O)(=O)c1cccc(C(=O)NCC2CCCO2)c1 (stereo unspecified) > 76.9 µM, CCCn1c(SCC(=O)Nc2ccccc2C(=O)OCC)nc2c1c(=O)n(C)c(=O)n2C > 76.9 µM, N#CCCN(C1CCCCC1)S(=O)(=O)CCOc1ccccc1 > 76.9 µM, COc1cc(-c2nnc(-c3ccncc3)o2)ccc1OCc1ccccc1 > 76.9 µM, COc1cc(S(=O)(=O)N2CCN(c3ccccc3F)CC2)ccc1Cl > 76.9 µM, CCOCCCn1c(SCC(=O)Nc2ccc(C(N)=O)cc2)nc2ccccc2c1=O > 76.9 µM, O=C1CN2C(=N1)N(Cc1ccccc1)c1ccccc12 > 76.9 µM, C=CCn1c(N)c(C(=O)NCc2ccco2)sc1=S > 76.9 µM, COc1ccc(S(=O)(=O)N(C)CC(=O)NCc2cccnc2)cc1 > 76.9 µM, Cc1ccc(Cn2c(Sc3ncccn3)nc3c2c(=O)[nH]c(=O)n3C)cc1 > 76.9 µM, N#CC(c1nc2ccccc2nc1N1CCCC1)S(=O)(=O)c1cccs1 (stereo unspecified) > 76.9 µM, O=C(O)CCC1COc2ccccc2O1 (stereo unspecified) > 76.9 µM, COC(=O)c1cn(C(=O)c2ccccc2F)nc1N > 76.9 µM, CCCOc1nc(N)c(C#N)c(-c2ccccc2F)c1C#N > 76.9 µM, COc1cc(C(=S)N2CCCC2)ccc1O > 76.9 µM, CCOC(=O)C(C)Sc1nc2c([nH]c3ccccc32)c(=O)n1C (stereo unspecified) > 76.9 µM, COc1ccc(CCNC(=O)c2[nH]c(C)c(C(C)=O)c2C)cc1OC > 76.9 µM, COc1cc(NC(=O)C(C)C)ccc1NC(=O)c1ccco1 > 76.9 µM, COc1ccc(CN2CC(C(=O)NCCC3=CCCCC3)CC2=O)cc1 (stereo unspecified) > 76.9 µM, NC(=O)C[C@@H]1N[C@]2(C(=O)Nc3ccccc32)[C@@H]2C(=O)N(c3cc(C(F)(F)F)ccc3Cl)C(=O)[C@H]12 > 76.9 µM

Source: PubChem BioAssay AID360 (National Center for Advancing Translational Sciences (NCATS), 2006)
